Hit rate of the full screen: of about 110,000 compounds, about 230 (0.21%) showed an effect of 50% or more. This is one part of the list.
target: DPAP1 (Plasmodium falciparum, UniProt Q8IIJ9); assay: primary screen, percent inhibition; read by cleavage of a fluorogenic dipeptide substrate; higher = more effect of the substance; design: species or system P. falciparum D10 trophozoite lysates; single well
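Also: 30 min substrate incubation versus DMSO and 10 µM JCP410 controls.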

Sequence of DPAP1 (Q8IIJ9 whole entry, looked up): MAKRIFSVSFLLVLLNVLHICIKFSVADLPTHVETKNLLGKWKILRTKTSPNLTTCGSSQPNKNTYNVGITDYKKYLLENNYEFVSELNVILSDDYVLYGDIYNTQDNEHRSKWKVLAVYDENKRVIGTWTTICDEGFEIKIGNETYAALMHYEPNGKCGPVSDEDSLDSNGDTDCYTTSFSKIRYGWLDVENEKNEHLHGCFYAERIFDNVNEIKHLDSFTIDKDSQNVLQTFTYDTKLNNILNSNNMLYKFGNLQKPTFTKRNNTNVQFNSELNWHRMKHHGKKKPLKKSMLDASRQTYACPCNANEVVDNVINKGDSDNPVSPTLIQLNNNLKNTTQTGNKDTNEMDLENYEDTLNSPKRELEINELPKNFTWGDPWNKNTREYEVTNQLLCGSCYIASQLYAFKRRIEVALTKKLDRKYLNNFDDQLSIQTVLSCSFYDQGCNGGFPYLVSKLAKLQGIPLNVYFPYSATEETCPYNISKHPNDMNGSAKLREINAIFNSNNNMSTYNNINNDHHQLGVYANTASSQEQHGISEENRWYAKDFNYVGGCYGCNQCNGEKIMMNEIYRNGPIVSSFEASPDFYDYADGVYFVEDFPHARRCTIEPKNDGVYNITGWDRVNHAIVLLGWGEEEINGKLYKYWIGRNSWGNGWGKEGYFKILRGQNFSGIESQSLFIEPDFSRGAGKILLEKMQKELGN

SMILES	% Inhibition @ 10 uM [%]
COc1cccc(C(=O)COc2ccc(NC(=O)c3ccccc3)cc2)c1	-6.66
Cc1cc(NC(=O)CC23CC4CC(CC(C4)C2)C3)no1	-1.93
COc1ccc(OCC(O)CNC(C)(C)C)cc1 (stereo not shown)	-4.06
CC1CCN(C(=O)C2CCN(S(=O)(=O)c3cccnc3)CC2)CC1	-2.7
COc1ccc(C2CC(C(F)(F)F)n3ncc(C(=O)NCc4ccco4)c3N2)cc1OC (stereo not shown)	-1.93
CCCCN(CCNC(=O)c1c(C)oc2ncnc(N3CCOCC3)c12)Cc1ccco1	-3.09
COc1cc(/C=C/c2nc(C#N)c(N3CCOCC3)o2)cc(OC)c1OC	0.895
CCc1cccc(C)c1NC(=O)CSc1nc2ccccc2[nH]1	1.02
O=C(c1ccccc1)c1ccc2nc(NC3CCCC3)c3nncn3c2c1	4.56
Cc1ccccc1NC(=O)c1ccccc1C(=O)O	3.56
COc1cccc(C2C(C(=O)c3ccc(F)cc3)=C(O)C(=O)N2Cc2cccnc2)c1 (stereo not shown)	0.755
COc1ccccc1-c1nnc(SCC#CCOC(=O)c2ccc(Cl)cc2)o1	3.73
Cc1ccc(S(=O)(=O)Cc2nc(-c3ccc(C(=O)NCCc4ccccc4)cc3)oc2C)cc1	-3.29
O=C(Nc1cccc2ccccc12)C1CCC(N2C(=O)c3ccccc3C2=O)CC1 (stereo not shown)	3.37
COC(=O)C1=CN(CCc2ccccc2)C=C(C(=O)OC)C1c1ccc2c(c1)OCO2	-10.6
O=C(O)CN1C(=O)c2ccc(C(=O)O)cc2C1=O	3.06
COc1ccc(C(=O)Cn2c(N3CCN(C)CC3)nc3c2c(=O)n(C)c(=O)n3C)cc1OC	-0.834
CC(C)NC(=O)C(=O)c1c(O)[nH]c2ccccc12	-6.67
O=C(C(Cc1ccc([N+](=O)[O-])cc1)N1C(=O)c2ccccc2C1=O)N1CCCCC1 (stereo not shown)	-4.26
Cc1ccccc1N1CCN(CCCCN2C(=O)C3CCCN3C2=O)CC1 (stereo not shown)	-0.0619
CCC1CCC(N2CCN(C/C=C/c3ccccc3)CC2)CC1 (stereo not shown)	-0.446
Cc1ccc(C(=O)Nc2nccc(C)n2)cc1	-5.92
CCC(=O)Nc1ccc2nn(-c3ccc(Cl)cc3)nc2c1	-6.25
COc1ccc(NC(=O)c2ccc(C)cc2)cc1OC	-2.78
CC1CCN(S(=O)(=O)c2ccc(NC(=O)COc3ccc(C(C)(C)C)cc3)cc2)CC1	-5.21

SMILES	% Inhibition @ 10 uM [%]
O=C(c1ccc(CS(=O)c2cccc(Cl)c2)o1)N1CCN(Cc2ccccc2)CC1 (stereo not shown)	1.22
COc1cccc(C(=O)NCc2ccc(C)cc2)c1	2.33
Cc1nc2nc(NC(=O)COc3ccc(Cl)cc3)nn2c(O)c1Cc1ccccc1	-6.81
COc1ccc(Cn2ccc3nc(C)c(C(=O)NCc4ccc5c(c4)OCO5)cc3c2=O)cc1	-2.48
CN(Cc1ccccc1)C(=O)c1ccc(Br)cc1	-4.35
CC1CCN(C(=O)c2nn3c(c2Cl)NC(c2cccs2)CC3C(F)(F)F)CC1 (stereo not shown)	-2.87
Cc1ccc(C(=O)Nc2nnc(S(=O)(=O)NCc3ccccc3)s2)cc1	-5.37
COc1ccc(-n2c(SC)nc3c(c2=O)C2(CCCC2)Cc2ccccc2-3)cc1	-4.03
Cn1c(=O)c2ncc(-c3ccccc3)nc2n(C)c1=O	0.0999
CC(=O)Nc1ccc(S(=O)(=O)N2CCN(c3ccc([N+](=O)[O-])cc3)CC2)cc1	11.1
CCC1CCCCN1CCCNC(=O)C1=C(C)C(=O)OC12CCCCC2 (stereo not shown)	-2.11
O=C(Nc1nnc(-c2ccc(Cl)cc2Cl)s1)c1ccccc1F	1.67
CC(C)(C)c1cc(C(=O)CSc2nnnn2-c2ccccc2)cc(C(C)(C)C)c1O	-4.06
COc1ccc(NC(=O)C2=C(C)NC(=O)NC2c2ccccc2F)c(OC)c1 (stereo not shown)	-1.95
Cc1ccsc1CN1CCN(c2ccccc2Cl)CC1	3.1
CCOC(=O)c1ccc(CNC(=O)c2c(N)no[n+]2[O-])o1	-5.53
CCCC(=O)Nc1ccc(S(=O)(=O)Nc2ccc(OC)cc2)cc1	-1.6
COC(=O)c1nnn(-c2nonc2N)c1CS(=O)(=O)Cc1ccccc1	0.883
CC1(c2ccccc2)CNC(=O)C1 (stereo not shown)	-3.4
Clc1ccccc1COc1ccc(CNCc2cccnc2)cc1	-0.992
COc1ccc(C2C(C(=O)c3ccccc3)=C(O)C(=O)N2CCCn2ccnc2)cc1 (stereo not shown)	-9.88
COc1ccc(C2=NN(c3nc(C)cc(C)n3)C(=O)C2)cc1	-1.11
CCc1c(C)c2ccc3c(c2oc1=O)CN(Cc1ccc(F)cc1)CO3	3.54
CCC1CCCCN1C(=O)CSc1ncccc1C(=O)O (stereo not shown)	-5.92
Cc1ccc2cc3cc(C(=O)NCC4COc5ccccc5O4)sc3nc2c1 (stereo not shown)	1.22

SMILES	% Inhibition @ 10 uM [%]
Cc1nn(CCCC(=O)NCCc2ccccc2)c(=O)c2nn(-c3ccccc3)c(C)c12	-2.31
COC(=O)c1c(NC(=O)c2ccc(OC)c(OC)c2)sc2c1CCCC2	-1.1
COc1ccc(CC(=O)NC2CCCC2)cc1	0.273
Cc1cccc(CSCc2nnc(NC(=O)/C=C/c3ccccc3)s2)c1	3.25
CC(C)(C)C1CCc2c(sc(NC(=O)C3CCCO3)c2C(N)=O)C1 (stereo not shown)	-0.267
Cc1[nH]c2ccccc2c1CCNC(=O)c1cccs1	-3.34
Cc1ccc([N+](=O)[O-])c2c3c([nH]c12)/C(=N/CCO)CCC3	0.989
O=C(NCCCc1nc2ccccc2n1Cc1ccccc1F)c1ccccc1	6.03
O=C(NCc1ccccc1)C1=Cc2sc3c(c2CS1)CCCC3	7.06
O=C(Nc1c(O)c2ccccc2oc1=O)c1ccc2c(c1)OCO2	-0.426
Cc1cc(S(=O)(=O)N2CC=C(c3c(C)[nH]c4ccccc34)CC2)ccc1F	2.13
CCCCN(C)C(=O)/C(=C/c1cn(CC)c2ccccc12)NC(=O)c1ccccc1OC	-3.52
OC(COc1ccccc1)CN1CCN(Cc2ccccc2)CC1 (stereo not shown)	-4.5
Cn1cc(C(CC(=O)c2ccccc2)C(=O)O)c2ccccc21 (stereo not shown)	0.313
COc1ccc(C2=NS(=O)(=O)N(C)C(C(=O)NCc3ccccn3)=C2)cc1	-1.06
Cc1nn(CCCC(=O)NCc2ccccc2Cl)c(=O)c2nccn12	0.0882
Cc1ccc(-c2cc(C(F)(F)F)n3ncc(C(=O)N(C)Cc4c(C)nn(C)c4C)c3n2)cc1	2.32
CC(C)COC(=O)NCCCOC(=O)Nc1ccccc1	-4.61
Nc1nonc1-c1nc2ccccc2n1CC(=O)Nc1ccccc1Cl	-6.38
CCCOc1ccc(C2NCCc3c2[nH]c2ccccc32)cc1OC (stereo not shown)	0.214
COCCN1C(=O)/C(=C/c2ccc(O)cc2)S/C1=N\c1ccccc1	12.6
CC1CC(Nc2ccccc2)c2ccccc2N1C(=O)c1ccc2c(c1)OCO2 (stereo not shown)	4.98
CC1=C(C(=O)Nc2ccc(Br)cc2)C(c2ccc3c4c(cccc24)CC3)NC(=O)N1 (stereo not shown)	-2.91
O=C(O)C(Cc1ccccc1)Nc1ncnc2ccccc12 (stereo not shown)	1.52
CCN(CC)C(=O)C1CCCN(C/C(C)=C/c2ccccc2)C1 (stereo not shown)	-0.446

SMILES	% Inhibition @ 10 uM [%]
O=S(=O)(Nc1cccc2cccnc12)c1cccs1	-0.884
CCOc1ccc2[nH]c(SCC(O)C(C)(C)C)nc2c1 (stereo not shown)	4.98
CCc1ccc(NC(=O)CSc2nc(N)cc(N)n2)cc1	-3.24
COc1ccc(Nc2nc(C)cc(C)c2C#N)cc1	-0.436
CCCc1[nH]nc2c1C(c1ccc(Cl)cc1)C(C#N)=C(N)O2 (stereo not shown)	-2.89
Cc1nc2sc3c(c2c(=O)n1CC(=O)NCc1ccccc1)CCCC3	1.91
O=C(/C=C/c1ccccc1)NC(=S)N1CCCCCC1	3.32
Cc1ccc(Cl)cc1NC(=O)CSc1nc2ccccc2n1C	-6.75
Cc1cccc(NC(=O)c2cccc(S(=O)(=O)Nc3cccc(C(=O)O)c3)c2)c1	3.05
CC(=O)c1cccc(N2C(=O)C3CCCCC3C2=O)c1 (stereo not shown)	9.94
Cc1cccc(NC(=O)CSc2ncnc3[nH]cnc23)c1	-1.6
CCCCNCc1c(C(=O)O)n(Cc2ccccc2F)c2ccccc12	3.54
COc1cc2c(cc1OC)C(COc1ccc3c(C)cc(=O)oc3c1)N(C(=O)c1cccs1)CC2 (stereo not shown)	-0.58
O=[N+]([O-])c1ccc(CN2CCCC2CO)cc1 (stereo not shown)	3.15
O=C(NCc1ccco1)C1CC(=O)N(c2ccc(Br)cc2)C1 (stereo not shown)	-2.74
CCC(Oc1ccccc1)C(=O)Nc1sc(C)c(C)c1C#N (stereo not shown)	-4.65
Cc1cc2cc(CNC(=O)CC(C)C)ccc2[nH]1	-3.7
C=Cc1ccc(Cn2c(C)c(CNCc3ccc(CC)cc3)c(C(=O)O)c2C)cc1	-5.49
CCOC(=O)N1CCN(C(=O)CNS(=O)(=O)c2ccc(Br)cc2)CC1	1.4
COc1ccc(Oc2ccc(N)cc2)cc1	-1.88
O=C1OC(c2ccc(Cl)c(Cl)c2)=N/C1=C\c1ccco1	1.97
CCn1ncc(Br)c1C(=O)Nc1sc2c(c1C(N)=O)CCC2	-3.5
COc1ccc(C2C(C#N)=C(N)Oc3c2c(C)nn3-c2ccc(C)cc2)cc1OC (stereo not shown)	-8.35
CCn1cc(/C=C(\NC(=O)c2ccco2)C(=O)NCCCN2CCOCC2)c2ccccc21	-3.52
O=C(O)C1CCCCC1C(=O)Nc1ccc(Oc2ccc(Cl)cc2)cc1 (stereo not shown)	2.65
